The source of these data is publication PMC4022732.

No constants are given. Whether binding was seen depends on the method and setting. Some entries that bind do so weakly or less than the wild type. Sequences can lack the tags named with a protein.

The test deals with recombinant full length Mtb GroEL2 (N-terminal 6XHis-tag, C-terminal S-tag) (Mycobacterium tuberculosis H37Rv), P9WPE7. As to the kind of experiment: SEC; unpublished results: recombinant GroEL2 over a range of concentrations on the size exclusion column; both purified. The conditions noted are these: remark: other sources report otherwise.

B1: recombinant full length Mtb GroEL2 (N-terminal 6XHis-tag, C-terminal S-tag), P9WPE7 1-540 (protein)
chain: MAKTIAYDEEARRGLERGLNALADAVKVTLGPKGRNVVLEKKWGAPTITNDGVSIAKEIELEDPYEKIGAELVKEVAKKTDDVAGDGTTTATVLAQALVREGLRNVAAGANPLGLKRGIEKAVEKVTETLLKGAKEVETKEQIAATAAISAGDQSIGDLIAEAMDKVGNEGVITVEESNTFGLQLELTEGMRFDKGYISGYFVTDPERQEAVLEDPYILLVSSKVSTVKDLLPLLEKVIGAGKPLLIIAEDVEGEALSTLVVNKIRGTFKSVAVKAPGFGDRRKAMLQDMAILTGGQVISEEVGLTLENADLSLLGKARKVVVTKDETTIVEGAGDTDAIAGRVAQIRQEIENSDSDYDREKLQERLAKLAGGVAVIKAGAATEVELKERKHRIEDAVRNAKAAVEEGIVAGGGVTLLQAAPTLDELKLEGDEATGANIVKVALEAPLKQIAFNSGLEPGVVAEKVRNLPAGHGLNAQTGVYEDLLAAGVADPVKVTRSALQNAASIAGLFLTTEAVVADKPEKEKASVPGGGDMGGMDF
Consider B1, for which the binding result is recorded as “binds”.
